# Experimental data published in the supplement of paper PMC8728848.
# This is one part of the list.
# Assays:
# Test in all cases: glycan array binding signal (z-score within array); higher = stronger binding
# Settings in all cases: glycan notation: IUPAC condensed, linker removed
# [1] = biological target: Fuc(a1-2)Gal
# Outline: (§1)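 Glycan array data were curated from 3228 arrays in the Consortium for Functional Glycomics database and kept only where the protein sequence was available. Glycan names were converted to IUPAC-condensed notation, and columns mapping to the same glycan were averaged. The binding signal is a within-array Z-score, averaged across arrays of the same protein sequence at different concentrations or buffers and across linkers. Negative Z-scores can be read as non-binding.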
# [2] = biological target: Fuc(a1-2)Gal(b1-3)GalNAc
# Outline: as §1
# [3] = biological target: Fuc(a1-2)Gal(b1-3)GalNAc(a1-3)[Fuc(a1-2)]Gal(b1-4)Glc
# Outline: as §1
# [4] = biological target: Fuc(a1-2)Gal(b1-3)GalNAc(a1-3)[Fuc(a1-2)]Gal(b1-4)GlcNAc
# Outline: as §1
# [5] = biological target: Fuc(a1-2)Gal(b1-3)GalNAc(b1-3)Gal
# Outline: as §1
# [6] = biological target: Fuc(a1-2)Gal(b1-3)GalNAc(b1-3)Gal(a1-4)Gal(b1-4)Glc
# Outline: as §1
# [7] = biological target: Fuc(a1-2)Gal(b1-3)GalNAc(b1-4)[Neu5Ac(a2-3)]Gal(b1-4)Glc
# Outline: as §1
# [8] = biological target: Fuc(a1-2)Gal(b1-3)GlcNAc
# Outline: as §1
# [9] = biological target: Fuc(a1-2)Gal(b1-3)GlcNAc(b1-2)Man(a1-3)[Fuc(a1-2)Gal(b1-3)GlcNAc(b1-2)Man(a1-6)]Man(b1-4)GlcNAc(b1-4)GlcNAc
# Outline: as §1
# [10] = biological target: Fuc(a1-2)Gal(b1-3)GlcNAc(b1-2)Man(a1-3)[Fuc(a1-2)Gal(b1-3)GlcNAc(b1-2)Man(a1-6)]Man(b1-4)GlcNAc(b1-4)[Fuc(a1-6)]GlcNAc
# Outline: as §1
# [11] = biological target: Fuc(a1-2)Gal(b1-3)GlcNAc(b1-3)Gal(b1-4)Glc
# Outline: as §1
# [12] = biological target: Fuc(a1-2)Gal(b1-3)GlcNAc(b1-3)GalNAc
# Outline: as §1
# [13] = biological target: Fuc(a1-2)Gal(b1-3)GlcNAc(b1-3)[Fuc(a1-2)Gal(b1-3)GlcNAc(b1-6)]GalNAc
# Outline: as §1
# [14] = biological target: Fuc(a1-2)Gal(b1-3)GlcNAc(b1-3)[Gal(b1-4)GlcNAc(b1-6)]Gal(b1-4)Glc
# Outline: as §1
# [15] = biological target: Fuc(a1-2)Gal(b1-3)GlcNAc(b1-3)[Neu5Ac(a2-6)Gal(b1-4)GlcNAc(b1-6)]Gal(b1-4)Glc
# Outline: as §1
# [16] = biological target: Fuc(a1-2)Gal(b1-3)GlcNAc6S
# Outline: as §1
# [17] = biological target: Fuc(a1-2)Gal(b1-3)[Fuc(a1-4)]GlcNAc
# Outline: as §1
# [18] = biological target: Fuc(a1-2)Gal(b1-3)[Fuc(a1-4)]GlcNAc(b1-2)Man(a1-3)[Fuc(a1-2)Gal(b1-3)[Fuc(a1-4)]GlcNAc(b1-2)Man(a1-3)]Man(b1-4)GlcNAc(b1-4)GlcNAc
# Outline: as §1
# [19] = biological target: Fuc(a1-2)Gal(b1-3)[Fuc(a1-4)]GlcNAc(b1-2)Man(a1-3)[Fuc(a1-2)Gal(b1-3)[Fuc(a1-4)]GlcNAc(b1-2)Man(a1-6)]Man(b1-4)GlcNAc(b1-4)[Fuc(a1-6)]GlcNAc(b1-4)[Fuc(a1-6)]GlcNAc
# Outline: as §1
# [20] = biological target: Fuc(a1-2)Gal(b1-3)[Fuc(a1-4)]GlcNAc(b1-3)[Fuc(a1-3)[Gal(b1-4)]GlcNAc(b1-6)]Gal(b1-4)Glc
# Outline: as §1
# [21] = biological target: Fuc(a1-2)Gal(b1-3)[Fuc(a1-4)]GlcNAc(b1-3)[Gal(b1-4)GlcNAc(b1-6)]Gal(b1-4)Glc
# Outline: as §1
# [22] = biological target: Fuc(a1-2)Gal(b1-4)Fuc(a1-3)]GlcNAc(b1-2)Man(a1-3)[Fuc(a1-2)Gal(b1-4)[Fuc(a1-3)]GlcNAc(b1-2)Man(a1-6)]Man(b1-4)GlcNAc(b1-4)GlcNAc
# Outline: as §1
# [23] = biological target: Fuc(a1-2)Gal(b1-4)Glc
# Outline: as §1
# [24] = biological target: Fuc(a1-2)Gal(b1-4)Glc6S
# Outline: as §1
# [25] = biological target: Fuc(a1-2)Gal(b1-4)GlcNAc
# Outline: as §1
# [26] = biological target: Fuc(a1-2)Gal(b1-4)GlcNAc(b1-2)Man
# Outline: as §1
# [27] = biological target: Fuc(a1-2)Gal(b1-4)GlcNAc(b1-2)Man(a1-3)[Fuc(a1-2)Gal(b1-4)GlcNAc(b1-2)Man(a1-6)]Man(b1-4)GlcNAc(b1-4)GlcNAc
# Outline: as §1
# [28] = biological target: Fuc(a1-2)Gal(b1-4)GlcNAc(b1-2)Man(a1-3)[Fuc(a1-2)Gal(b1-4)GlcNAc(b1-2)Man(a1-6)]Man(b1-4)GlcNAc(b1-4)[Fuc(a1-6)]GlcNAc
# Outline: as §1
# [29] = biological target: Fuc(a1-2)Gal(b1-4)GlcNAc(b1-2)[Fuc(a1-2)Gal(b1-4)GlcNAc(b1-4)]Man(a1-3)[Fuc(a1-2)Gal(b1-4)GlcNAc(b1-2)Man(a1-6)]Man(b1-4)GlcNAc(b1-4)GlcNAc
# Outline: as §1
# [30] = biological target: Fuc(a1-2)Gal(b1-4)GlcNAc(b1-3)Gal(b1-4)GlcNAc
# Outline: as §1
# [31] = biological target: Fuc(a1-2)Gal(b1-4)GlcNAc(b1-3)Gal(b1-4)GlcNAc(b1-2)Man(a1-3)[Fuc(a1-2)Gal(b1-4)GlcNAc(b1-3)Gal(b1-4)GlcNAc(b1-2)Man(a1-6)]Man(b1-4)GlcNAc(b1-4)GlcNAc
# Outline: as §1
# [32] = biological target: Fuc(a1-2)Gal(b1-4)GlcNAc(b1-3)Gal(b1-4)GlcNAc(b1-3)Gal(b1-4)GlcNAc
# Outline: as §1
# [33] = biological target: Fuc(a1-2)Gal(b1-4)GlcNAc(b1-3)GalNAc
# Outline: as §1
# [34] = biological target: Fuc(a1-2)Gal(b1-4)GlcNAc(b1-3)[Fuc(a1-2)Gal(b1-4)GlcNAc(b1-6)]GalNAc
# Outline: as §1
# [35] = biological target: Fuc(a1-2)Gal(b1-4)GlcNAc(b1-3)[Fuc(a1-3)[Gal(b1-4)]GlcNAc(b1-6)]Gal(b1-4)Glc
# Outline: as §1
# [36] = biological target: Fuc(a1-2)Gal(b1-4)GlcNAc(b1-6)GalNAc
# Outline: as §1
# [37] = biological target: Fuc(a1-2)Gal(b1-4)GlcNAc6S
# Outline: as §1
binder,measurement,setting,value
"CC1G-11630 (Coprinopsis cinerea), A8P462 (protein) MTTEAKIKLKAVVYWELVFDYDNSSNTGEITQSYTVKISQTSTRSTFASEVSTTTIDTLTKNNQEVDVGASYGAISANVSASWEHSEEVNNMLEKTTQTSTEDTYTVETEETRSYTIGPGGMLSLFQKHFSGPGMHVAFDVFTTDLELAKERTEIDIDVDVEAIRFVREIRVVYTDIMSEAPGDHVREINGKNPDINYGFNGKFVWLVPEQTRKTAQALTNVEFVSQAESDDRYWDLAAGAGGSNRYLIPVYDTNNKDKIYELALWRSDSYITHDKVKAAGWSGTTGDINSGRGGTYLNLVWKTRHAY",glycan array binding signal (z-score),[1],-0.208
same,glycan array binding signal (z-score),[2],-0.617
same,glycan array binding signal (z-score),[3],-0.391
same,glycan array binding signal (z-score),[4],0.2
same,glycan array binding signal (z-score),[5],1.26
same,glycan array binding signal (z-score),[6],0.054
same,glycan array binding signal (z-score),[7],-0.101
same,glycan array binding signal (z-score),[8],-0.468
same,glycan array binding signal (z-score),[9],0.706
same,glycan array binding signal (z-score),[10],0.009
same,glycan array binding signal (z-score),[11],-0.226
same,glycan array binding signal (z-score),[12],0.001
same,glycan array binding signal (z-score),[13],0.024
same,glycan array binding signal (z-score),[14],-0.493
same,glycan array binding signal (z-score),[15],-0.347
same,glycan array binding signal (z-score),[16],-0.14
same,glycan array binding signal (z-score),[17],-0.476
same,glycan array binding signal (z-score),[18],2.22
same,glycan array binding signal (z-score),[19],-0.509
same,glycan array binding signal (z-score),[20],-0.679
same,glycan array binding signal (z-score),[21],-0.49
same,glycan array binding signal (z-score),[22],1.38
same,glycan array binding signal (z-score),[23],-0.319
same,glycan array binding signal (z-score),[24],0.335
same,glycan array binding signal (z-score),[25],-0.153
same,glycan array binding signal (z-score),[26],0.721
same,glycan array binding signal (z-score),[27],0.542
same,glycan array binding signal (z-score),[28],0.871
same,glycan array binding signal (z-score),[29],0.749
same,glycan array binding signal (z-score),[30],-0.822
same,glycan array binding signal (z-score),[31],-0.205
same,glycan array binding signal (z-score),[32],-0.439
same,glycan array binding signal (z-score),[33],-0.5
same,glycan array binding signal (z-score),[34],-0.036
same,glycan array binding signal (z-score),[35],-0.581
same,glycan array binding signal (z-score),[36],0.713
same,glycan array binding signal (z-score),[37],0.388
